Data as given in PubChem BioAssay AID1345083 (National Center for Advancing Translational Sciences (NCATS), 2018).
In all, about 94,000 compounds went through this assay and about 6,200 (6.6%) were called active. Inconclusive results, whose numbers are uncertain, are shown with a selection of clear calls. The call rests on the fitted dose curve; in most records, active means well fitted inhibition curve with a large enough effect; inconclusive means small, poorly fitted or top-dose-only effect; inactive means flat fitted curve, though single readings scatter. A potency beside an inconclusive call is a rough fit, not a confirmed value.

assay: Cytotoxic Profiling in HEK 293 Cell Line of Diverse Libraries Using Quantitative High-Throughput Screening; conditions: HEK 293 viability, ATP luminescence (CellTiter-Glo), 48-72 h; activity change, negative = cytotoxicity: at 115 µM (top of the series) unless noted; series mostly up to 115 µM; further: nearly all actives have a fitted effect of over 60% in size
Summary of the method: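 250 HEK 293 cells/well; compound by pintool; incubated 48 or 72 hr at 37 degree Celsius; CellTiter-Glo added, 10 min RT, luminescence imaged.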
On the % scale 0 is the no-effect control and ±100 the full control effect; potency means the concentration at half of the fitted maximal effect; tags describe the fitted curve by direction and shape.

SMILES	activity change, negative = cytotoxicity	Potency	outcome
O=C(Cn1nc2c(cc1=O)CCCCC2)NCC1CCOCC1	inactive: 0.982%		
O=C(NCCc1cnc[nH]1)c1ccc(-c2ncc3cnc(-c4cccc(F)c4)cn23)cc1		active: 89.1 µM	
CN(Cc1cccc(OC(F)(F)F)c1)Cc1cccc(C(F)(F)F)c1			inactive
Cc1ccc(C(=O)N2CC(Oc3ccc(F)cc3C)C2)cc1		inconclusive: 70.8 µM [inhibitor, partial curve, poor fit]	
CCOc1ccccc1C1NC(=O)N(CC(=O)NCc2ccccc2Cl)C2=C1C(=O)OC2 (stereo not given)		inconclusive: 50.1 µM [inhibitor, partial curve, poor fit]	
CCN(Cc1noc(C)n1)C(=O)c1coc(COc2ccc3c(c2)OCO3)n1	inactive: -27.7%		
Cc1nn(C)c(C)c1CCN(C)C(=O)CCC1CCN(C(=O)c2ccccc2F)CC1	inactive: 0.553%		
Cc1oc(C(O)c2ccccc2)nc1C(=O)Nc1ccc2[nH]c(=O)oc2c1 (stereo not given)		inconclusive: 112 µM [inhibitor, partial curve]	
O=C1CCCCC(Cc2ccccc2)(C(=O)N2CCN(c3ccccn3)CC2)N1 (stereo not given)		inconclusive: 35.5 µM [inhibitor, partial curve, poor fit]	
CNC(=O)c1cc(-c2cccc(OC)c2)nc2c1cnn2C		inconclusive: 44.7 µM [inhibitor, partial curve, poor fit]	
CCNC(=O)[C@@H]1C[C@H](NC(=O)c2ccc[nH]2)CN1C(=O)c1csc(C)n1	inactive: -21.4%		
O=C(Nc1cccc(Cl)c1)c1ccc2nc(-c3ccncc3)oc2c1		inconclusive: 22.4 µM [inhibitor, full curve]	
COc1ccc(CCC(=O)N2CCC(c3noc(COc4ccc(C)cc4)n3)C2)cc1 (stereo not given)		inconclusive: 56.2 µM [inhibitor, partial curve, poor fit]	
CN1CC(=O)N(C2CCC2)Cc2c(NCc3cccs3)ncnc21		inconclusive: 126 µM [inhibitor, partial curve, poor fit]	
O=C(Nc1ccc(Cl)cc1)N1CCCC(C(=O)N2CCC(c3ccccc3)CC2)C1 (stereo not given)		inconclusive: 56.2 µM [inhibitor, partial curve, poor fit]	
COCCN1CCC2(CCC1=O)CCN(C(=O)Nc1cc(C)ccc1OC)CC2	inactive: 2.06%		
CCOCC1(C)COc2ccc(C(=O)NCc3ccc(F)cc3)cc2N1 (stereo not given)		inconclusive: 112 µM [inhibitor, partial curve, poor fit]	
Cc1nn(-c2ccccc2)c(Oc2ccc(F)cc2F)c1CCC(=O)NCC1CCCO1 (stereo not given)		inconclusive: 50.1 µM [inhibitor, partial curve, poor fit]	
O=C(c1ccc2nnc(-c3cc(F)ccc3F)n2c1)N1CCOCC1	inactive: 3.56%		
CCC1(N2CCN(C(=O)c3ccc(Cl)s3)CC2)CCN(S(C)(=O)=O)C1 (stereo not given)		inconclusive: 89.1 µM [inhibitor, partial curve, poor fit]	
CN(C)Cc1ccc2c(c1)c(OC(C)(C)C(=O)NC1CC1)nn2Cc1ccccc1	inactive: -23.4% [at 172 µM]		
CC(=O)NC1CCCc2c1[nH]c1ccc(Cl)cc21 (stereo not given)		inconclusive: 35.5 µM [inhibitor, partial curve, poor fit]	
Cc1ccc(NC(=O)N2CCC(CCNC(=O)C3CC3)CC2)cc1		inconclusive: 100 µM [inhibitor, single point]	
Cc1nccn1C1CN(C(=O)c2ccc3cc[nH]c3c2)C1	inactive: -6.39%		

SMILES	activity change, negative = cytotoxicity	Potency	outcome
FC(F)(F)c1ccc2nc([C@H]3CCN(CC4CC4)C3)[nH]c2c1		inconclusive: 112 µM [inhibitor, single point]	
COc1ccccc1-c1cccc(CN2CCC(NC(=O)NC(C)C)CC2)c1		inconclusive: 50.1 µM [inhibitor, partial curve, poor fit]	
O=C1CO[C@H]2CCN(Cc3cccc(OC(F)(F)F)c3)CC[C@@H]2N1Cc1ccccc1		active: 50.1 µM	
O=C1[C@H]2CN(Cc3ccccc3F)C[C@H]2C(=O)N1CCc1ccccc1		inconclusive: 44.7 µM [inhibitor, partial curve]	
Cn1cc(C(=O)N2CCC(N3C(=O)C4(CCCCC4)C3c3ccncc3)CC2)cn1 (stereo not given)			inactive
O=C(Nc1ccc(C(F)(F)F)cc1)N[C@H]1[C@H](O)[C@H](O)C[C@@H]1c1ccccc1		inconclusive: 63.1 µM [inhibitor, full curve, poor fit]	
COc1ccc2c(c1)CCN=C2C[C@H]1CN(C(=O)C(C)(C)C)CC[C@H]1CC(=O)O		active: 112 µM	
COc1cccc(CC(=O)N2CCCOCCNC(=O)CC2)c1			inactive
Cc1nc2c(c(-c3ccc(O)cc3)n1)CN(Cc1ccsc1)CCC2		inconclusive: 56.2 µM [inhibitor, partial curve, poor fit]	
O=C(O)C[C@@H]1CCN(C(=O)C2CCCC2)C[C@@H]1CCN1CCC(n2c(=O)[nH]c3ccccc32)CC1	inactive: -3%		
CN1CCN([C@H]2CCN(C(=O)NCCc3ccccc3)C[C@H]2CCC(=O)O)CC1	inactive: 2.81%		
COC(=O)N1CC(CN2C(=O)c3c(c(C)nn3-c3ccccc3)C2C)C1 (stereo not given)	inactive: -7.84%		
NC(=O)c1ccc(Nc2cnc3ccc(-c4ccccc4)nn23)cc1		inconclusive: 89.1 µM [inhibitor, partial curve, poor fit]	
CN(Cc1ccc(-c2ccccc2)cc1)C(=O)C(C)(C)C		active: 63.1 µM	
COC1CCCN(c2cc(-c3ccsc3)nc3c(C)noc23)C1 (stereo not given)		inconclusive: 70.8 µM [inhibitor, partial curve, poor fit]	
O=C(C1CC2(CCNCC2)CN1)N1CCCN(Cc2ccc(F)cc2)CC1 (stereo not given)	inactive: -16.1%		
C[C@H]1CCCN1C(=O)c1nnc(CNCc2ccc3c(c2)OCO3)n1-c1cccnc1	inactive: 2.44% [at 172 µM]		
COc1ccc(-c2nc(C3CC(=O)N(c4ccc(C)cc4)C3)no2)cc1 (stereo not given)		inconclusive: 79.4 µM [inhibitor, partial curve, poor fit]	
Cc1nc(-c2cn(C3CCCN(C(=O)c4ccc(F)c(F)c4)C3)nn2)no1 (stereo not given)	inactive: 4.45%		
O=C(CCCc1ccccc1)NCC1CCCCC(=O)N1 (stereo not given)			inactive
CC(C)(C)C(O)CN1CCC(=O)N(Cc2ccccc2)Cc2sccc21 (stereo not given)		inconclusive: 35.5 µM [inhibitor, partial curve, poor fit]	
Cc1ccccc1C(=O)N1CCCC(N2C(=O)c3c(c(C)nn3-c3ccccc3)C2C(C)C)C1 (stereo not given)		active: 22.4 µM	
CNC(=O)c1cnc2c(c1)N(C(=O)Cc1ccc(C(C)C)cc1)CCC2		inconclusive: 100 µM [inhibitor, partial curve]	
Cc1cc(C(=O)N2CCCN(c3ccnc4ccnn34)CC2)ccc1Cl		active: 44.7 µM	

SMILES	activity change, negative = cytotoxicity	Potency	outcome
Cc1cccc(OCCc2noc(C3CN(C(=O)c4ccsc4)C3)n2)c1		inconclusive: 89.1 µM [inhibitor, partial curve, poor fit]	
COCCC1(C(=O)O)CCCN(C(=O)CCc2c(C)n[nH]c2C)C1 (stereo not given)	inactive: -9.18%		
Cc1cnc(CCNS(=O)(=O)c2cccc(F)c2)n1Cc1ccccc1		inconclusive: 79.4 µM [inhibitor, single point]	
CCn1cc(S(=O)(=O)N2C[C@@H](C(N)=O)[C@H](c3nc(C)no3)C2)cn1	inactive: 1.11%		
COCCN1CCCC2(CCN(c3ccc4ccccc4n3)C2)C1=O (stereo not given)	inactive: -32.5%		
CCC1(C(=O)NCc2cccc(F)c2)CCCCC(=O)N1 (stereo not given)	inactive: 2.58%		
CC(C)C[C@@H]1N[C@H](C(=O)NCCN(C)C)Cc2cn(CC3CC3)c3cccc1c23		active: 31.6 µM	
O=C(CC1CCCC1)N1CCCCCC1CN1CCCC1 (stereo not given)		inconclusive: 89.1 µM [inhibitor, single point]	
COc1ccccc1CNC[C@H]1Cn2cc(-c3ccc(C)cc3)nc2CO1		active: 100 µM	
CC1=C[C@@H](CNC(=O)c2ccc(C#N)cc2)[C@H](C(C)C)C[C@H]1CC(=O)N1CCCC1		inconclusive: 112 µM [inhibitor, partial curve]	
COc1ccc(CN2CCCC3(CN[S+](=O)([O-])c4ccccc4N3)C2)cc1 (stereo not given)		inconclusive: 50.1 µM [inhibitor, partial curve, poor fit]	
COc1cc(Cl)ccc1C(=O)NC1CCN(c2cc(-c3ccc(F)cc3)[nH]n2)CC1		inconclusive: 44.7 µM [inhibitor, partial curve, poor fit]	
O=C(c1ccccc1F)N1CC(Oc2ccc(F)cc2F)C1	inactive: -14.5%		
CN1c2cc(C(=O)Nc3ccc(Br)cc3)ccc2C(=O)N2CCCCCC21 (stereo not given)		active: 35.5 µM	
Cc1cccc(-c2cc(C3CCN(C(=O)Nc4ccccc4Cl)CC3)[nH]n2)c1		inconclusive: 56.2 µM [inhibitor, partial curve, poor fit]	
Cc1cc(=O)n(CC(=O)Nc2ccc(C(C)C)cc2)c(N2CCc3ccccc3C2)n1		inconclusive: 39.8 µM [inhibitor, partial curve, poor fit]	
Cn1nc(OC(C)(C)C(=O)NCCOc2ccccc2)c2cc(CN3CCCC3)ccc21		inconclusive: 112 µM [inhibitor, partial curve, poor fit]	
CC1CCN(C(=O)C[C@@H]2c3nc(NC(=O)c4ccco4)sc3C[C@@H]3[C@](C)(CO)[C@H](O)CC[C@]32C)CC1	inactive: -27%		
O=C(O)CCC(=O)N1Cc2ccccc2CC2(CCCN(Cc3ccc(O)cc3)C2)C1 (stereo not given)			inactive
Cc1nn(-c2ccccc2)c2c1C(C(C)C)N(C1CCN(C(=O)c3ccc(Cl)cc3)CC1)C2=O (stereo not given)		active: 25.1 µM	
O=C(CCc1ccc2c(c1)CNCCO2)NCC1CC1	inactive: -13.1%		
COc1cccc(CC(=O)NCCn2ccn3nc(-c4ccc(C)c(C)c4)cc3c2=O)c1		active: 79.4 µM	
